# Patent publication US12715909 (ENTHERA S R L, dated 2026)
# B1: B06 full length mAb (antibody, V domains shown)
# VH: [letters of about 100 residues left out]GAGTLDYWGQGTLVTVSS
# VL: DIVMTQSPDSLAVSLGERATINCKSSQSVLYSSNNKNYLSWYQQKPGQPPKLLIYWASTRESGVPDRFSGSGSGTDFTLTISSLQAEDVAVYYCQQYYSTPLTFGGGTKVEIK
# notes: also called anti-IGFBP5 mAb B06
# Legend:
# human IGFBP5 = target: T1, human IGFBP5 (human, UniProt P24593); test: BLI (Octet/BLItz), mAb captured via Fc on AHC biosensor, antigen in solution
# T1 construct: Bought protein; in BLI it was in solution; also called hIGFBP-5
# Protocol: (§1) To assess the binding affinity in more detail, affinity measurements were performed using Biomolecular Interaction Analysis performed by an Octet platform (BLItz System), which is a Biolayer Interferometry (BLI) platform. To establish the assay, the target monoclonal antibody (mAb, 2 identical antigen binding moieties, 2 μg/ml in 1% BSA containing 0.05% Tween 20) was immobilized via Fc on the via AHC biosensor and the interaction with the antigen human IGFBP5 (R&D, cat n° 875-B5) and mouse IGFBP5 (R&D, cat n° 578-B5) at different concentration were measured.
# mouse IGFBP5 = target: T2, mouse IGFBP5 (mouse, UniProt Q07079 20-271); test: as above
# Sequence of mouse IGFBP5 (Q07079 20-271 limits assumed): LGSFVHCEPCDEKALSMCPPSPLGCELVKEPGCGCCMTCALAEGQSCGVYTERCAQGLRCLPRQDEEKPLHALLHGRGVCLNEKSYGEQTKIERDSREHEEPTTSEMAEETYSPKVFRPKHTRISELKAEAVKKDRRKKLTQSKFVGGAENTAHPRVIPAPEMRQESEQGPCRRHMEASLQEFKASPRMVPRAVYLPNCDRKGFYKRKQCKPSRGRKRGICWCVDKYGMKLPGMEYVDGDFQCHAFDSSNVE
# T2 construct: Bought protein; in solution in BLI; also called mIGFBP-5; murine IGFBP5
# Protocol: as §1
# Sequence of human IGFBP5 (P24593 21-272 limits assumed): as the sequence (Q07079 20-271 limits assumed) above, with G87R, T90V, V116I, V157I, P159S, F183L, A245T counted along it
binder,measurement,setting,value
B1,Kd,human IGFBP5,0.1 nM
same,Kd,mouse IGFBP5,0.1 nM
